Assay results reported in PMC4336329 (PLoS ONE, 2015).
Hit rate of the full screen: of about 310,000 compounds, about 2,200 (0.71%) showed an effect of 50% or more. The effect is printed as a negative number. The list shows a part of the results.

biological target: human ether-à-go-go-related gene (hERG) potassium channel (human, UniProt Q12809); assay: primary screen, population patch clamp on CHO cells stably expressing hERG
Sequence (Q12809 whole entry, looked up): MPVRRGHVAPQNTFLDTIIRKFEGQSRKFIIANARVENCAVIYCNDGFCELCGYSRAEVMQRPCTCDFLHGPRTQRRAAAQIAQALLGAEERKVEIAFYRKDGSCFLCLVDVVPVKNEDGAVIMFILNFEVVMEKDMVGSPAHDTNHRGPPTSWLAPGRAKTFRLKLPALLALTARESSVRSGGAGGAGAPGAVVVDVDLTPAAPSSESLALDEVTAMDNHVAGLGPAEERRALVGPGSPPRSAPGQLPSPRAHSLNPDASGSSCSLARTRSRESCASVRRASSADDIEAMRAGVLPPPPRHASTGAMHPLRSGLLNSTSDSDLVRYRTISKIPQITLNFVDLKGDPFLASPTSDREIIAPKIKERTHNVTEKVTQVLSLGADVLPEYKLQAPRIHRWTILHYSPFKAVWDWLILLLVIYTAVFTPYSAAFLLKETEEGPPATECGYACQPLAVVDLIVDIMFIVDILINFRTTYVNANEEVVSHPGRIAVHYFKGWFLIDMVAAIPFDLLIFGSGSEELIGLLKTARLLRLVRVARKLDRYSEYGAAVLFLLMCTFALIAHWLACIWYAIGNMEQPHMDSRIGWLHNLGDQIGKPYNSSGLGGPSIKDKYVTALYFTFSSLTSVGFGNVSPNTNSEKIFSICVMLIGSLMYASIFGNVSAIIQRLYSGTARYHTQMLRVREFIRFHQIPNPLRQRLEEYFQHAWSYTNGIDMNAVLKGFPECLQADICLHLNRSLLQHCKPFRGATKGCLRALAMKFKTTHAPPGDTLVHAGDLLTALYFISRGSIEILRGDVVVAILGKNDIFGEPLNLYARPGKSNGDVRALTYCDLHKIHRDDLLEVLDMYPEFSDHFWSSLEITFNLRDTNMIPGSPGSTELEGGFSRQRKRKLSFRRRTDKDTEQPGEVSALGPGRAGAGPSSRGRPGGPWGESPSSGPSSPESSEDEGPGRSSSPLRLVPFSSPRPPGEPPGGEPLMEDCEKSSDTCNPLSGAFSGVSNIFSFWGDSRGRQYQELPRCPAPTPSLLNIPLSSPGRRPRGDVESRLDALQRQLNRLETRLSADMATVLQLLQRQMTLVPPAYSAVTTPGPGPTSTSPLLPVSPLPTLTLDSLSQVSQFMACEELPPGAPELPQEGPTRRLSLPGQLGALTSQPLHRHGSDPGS

SMILES | hERG current change (%, negative = inhibition) at 1uM [%]
COc1ccc(OC)c(S(=O)(=O)NCc2cn3ccsc3n2)c1 | 5.22
Clc1ccc(-c2nnc(-c3ccccc3)c(-c3c[nH]c4ccccc34)n2)cc1 | 14.7
Cc1ccccc1S(=O)(=O)Cc1ccc(C(=O)NC2CCCCC2C)o1 (stereo not shown) | 11
CNS(=O)(=O)c1ccc(N=Cc2c(O)n(-c3ccccc3)c(=O)[nH]c2=O)cc1 | 12.4
COc1ccc(C(=O)C2CC2c2ccc3c(c2)OCO3)cc1 (stereo not shown) | 13.2
COc1cc(/C=N/NC(=O)c2cc(C)oc2C)ccc1O | 12.4
CN(c1ccccc1)S(=O)(=O)c1cccc(C(=O)OCC(=O)NCc2ccc3c(c2)OCO3)c1 | 8.56
CC1(C)Cc2c(C#N)c(N3CCOCC3)nc(Cc3ccccc3)c2CO1 | 6.05
Cc1cc(C)c(OCCN2CC(C)OC(C)C2)c(Br)c1.O=C(O)C(=O)O (stereo not shown) | 0.28
O=C(O)c1nn(CCOc2c(Cl)cccc2Cl)c(=O)c2ccccc12 | 13.4
CCNC(=S)NC1CC2CCCC(C1)N2Cc1ccco1 (stereo not shown) | -2.58
COc1ccc(NC(=O)Cn2cnc3c(nnn3-c3ccc(C)cc3)c2=O)cc1 | 14.1
Cc1ccc(-n2c(O)c(C=Nc3cc(C)on3)c3ccccc3c2=O)c(C)c1 | 6.84
Cc1ccc2[nH]c(O)c(N=Nc3nc4ccccc4s3)c2c1 | 8.13
O=C1CNC(=O)N1 | 8.51
Cc1cccc(C)c1OCC(=O)Nc1ncn[nH]1 | 17.9
Cl.Oc1ccccc1CNCC12CC3CC(CC(C3)C1)C2 | 12.9
CCc1ccccc1NC1c2ccccc2C(=O)N1c1cc(C)ccn1 (stereo not shown) | 9.81
Cc1nccn1CC(=O)N/N=C/c1ccccc1O | -1.35
COc1cccc(-c2c(C(=O)N/N=C(\C)COc3ccccc3)nnn2-c2nonc2N)c1 | 6.96

SMILES | hERG current change (%, negative = inhibition) at 1uM [%]
CCOC(=O)N1CCN(C(=O)CSCC(=O)Nc2nc(-c3ccc(C)cc3)cs2)CC1 | 1.87
ClC1CCCCC1n1nnc2ccccc21 (stereo not shown) | 12.9
CCOC(=O)C1(Cc2cccc(OC)c2)CCN(CC2CC=CCC2)CC1 (stereo not shown) | -50.6
O=C(NC1CCCc2c1cnn2-c1cc(F)cc(F)c1)c1cc[n+]([O-])cc1 (stereo not shown) | -19.6
CCOc1ncccc1C(=O)NNC(=O)c1ccc(NS(=O)(=O)c2cccs2)cc1 | 16.8
O=C(Nc1ccc2c(c1)OCO2)c1ccccc1 | 13
Cc1cc(NC(=O)CCC(=O)N(c2ccccc2)C(C(=O)NCC2CCCO2)c2cccnc2)no1 (stereo not shown) | -0.442
Cc1ccccc1CC(=O)N(CCN(C)C)CC1CCCN(Cc2ccccc2F)C1 (stereo not shown) | 12.8
Cn1c(=O)n(Cc2ccccc2)c(=O)c2c1nc1n2CCCN1Cc1ccccc1 | -1.88
COc1ccc(S(=O)(=O)Nc2ccc(-c3ccc4nnc(C)n4n3)cc2)c(OC)c1 | 8.78
CCOc1ccccc1N1CCN(C(=O)C(F)(F)F)CC1 | 9.94
CCOC(=O)C1=C(C)NC(=O)NC1c1c(C)nn(-c2ccccc2)c1Cl (stereo not shown) | 9.55
Nc1sc(-c2ccccc2)cc1-c1n[nH]c(=S)n1C1CCCCC1 | 17.6
O=C(CSc1nc(Nc2ccccc2)nc(N2CCOCC2)n1)Nc1ccc2c(c1)OCCO2 | -2.24
CCCC(=O)OCC(=O)Nc1ccc(N=Nc2ccccc2)cc1 | 0.385
CN(C)c1cc(Cl)c2nonc2c1N | 3.88
O=[N+]([O-])c1cc(F)c2cccnc2c1O | 13.7
CC(=O)c1ccc(NC(=O)/C(=C\c2ccc(F)cc2)NC(=O)c2ccco2)cc1 | 1.89
COC(=O)c1c(NC(=O)CN2C(=O)NC3(CCC(C)CC3)C2=O)sc2c1CCC2 (stereo not shown) | 3.38
N#Cc1ccsc1NC(=O)CN1CCN(c2ccccc2)CC1 | 10.5

SMILES | hERG current change (%, negative = inhibition) at 1uM [%]
COc1ccc(NC(=O)CN(C)C(=O)c2cc3c(s2)CCC(C)C3)cc1 (stereo not shown) | 4.18
COc1ccc2cc(CN(Cc3cccs3)Cc3nnnn3Cc3ccccc3)c(=O)[nH]c2c1 | 0.0182
CCCCn1c(N)c(N(CCOC)C(=O)c2ccc(S(=O)(=O)N(CC)c3ccccc3)cc2)c(=O)[nH]c1=O | 14
CCn1cc(C2C(C(=O)Nc3cc(C)ccn3)=C(C)NC3=C2C(=O)CC(C)(C)C3)c(C)n1 (stereo not shown) | 9.57
O=c1cc(Cn2nnc(-c3ccc(Cl)cc3)n2)nc2sccn12 | -5.47
c1ccc(Cn2nnc3c(N4CCCCCC4)ncnc32)cc1 | 8.09
CCOc1ccc(NC(=O)N2CCC(C(N)=O)(N3CCCCC3)CC2)cc1 | -3.92
CC(=O)Nc1ccc(S(=O)(=O)NCc2ccccn2)cc1 | 16
CN1CCC(CO)(Cc2ccccc2)CC1 | 4.74
Cn1c(=O)c2c(nc3n2CCCN3CCc2ccccc2)n(C)c1=O | -1.31
CCCN(CCC)C(=O)Cn1c2ccccc2c2nc(=O)cc(C)n21 | 15.5
COc1ccc(C2(O)C(=O)Nc3ccccc32)cc1 (stereo not shown) | 5.32
Cc1ccc(SCCC(=O)Nc2cccnc2)cc1 | 14.5
CC(NC(=O)OCc1ccccc1)C(=O)OCN1C(=O)c2ccccc2C1=O (stereo not shown) | 8.71
N#C/C(N)=C(/C#N)N=Cc1cccc(Cl)c1 | 6.04
CCOc1ccccc1C1NC(=O)NC(C)=C1C(=O)OC1CCCC1C (stereo not shown) | -11.9
O=C1OC(=O)c2c(Br)c(Br)c(Br)c(Br)c21 | 14.9
O=C(NCc1ccc2c(c1)OCO2)C(c1ccco1)N(C(=O)c1csnn1)c1ccccc1 (stereo not shown) | -3.53
